Results taken from publication PMC4336329 (PLoS ONE, 2015).
Among all 310,000 compounds or so, about 14,000 (4.5%) showed an effect of 50% or more. Effects have a minus sign here. Some of the results follow.

Target: human ether-à-go-go-related gene (hERG) potassium channel (human, UniProt Q12809)
Assay: primary screen, population patch clamp on CHO cells stably expressing hERG
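Further: peak tail current of the secondary pulse compared with the same well before compound.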

human ether-à-go-go-related gene (hERG) potassium channel, sequence (Q12809 whole entry, looked up): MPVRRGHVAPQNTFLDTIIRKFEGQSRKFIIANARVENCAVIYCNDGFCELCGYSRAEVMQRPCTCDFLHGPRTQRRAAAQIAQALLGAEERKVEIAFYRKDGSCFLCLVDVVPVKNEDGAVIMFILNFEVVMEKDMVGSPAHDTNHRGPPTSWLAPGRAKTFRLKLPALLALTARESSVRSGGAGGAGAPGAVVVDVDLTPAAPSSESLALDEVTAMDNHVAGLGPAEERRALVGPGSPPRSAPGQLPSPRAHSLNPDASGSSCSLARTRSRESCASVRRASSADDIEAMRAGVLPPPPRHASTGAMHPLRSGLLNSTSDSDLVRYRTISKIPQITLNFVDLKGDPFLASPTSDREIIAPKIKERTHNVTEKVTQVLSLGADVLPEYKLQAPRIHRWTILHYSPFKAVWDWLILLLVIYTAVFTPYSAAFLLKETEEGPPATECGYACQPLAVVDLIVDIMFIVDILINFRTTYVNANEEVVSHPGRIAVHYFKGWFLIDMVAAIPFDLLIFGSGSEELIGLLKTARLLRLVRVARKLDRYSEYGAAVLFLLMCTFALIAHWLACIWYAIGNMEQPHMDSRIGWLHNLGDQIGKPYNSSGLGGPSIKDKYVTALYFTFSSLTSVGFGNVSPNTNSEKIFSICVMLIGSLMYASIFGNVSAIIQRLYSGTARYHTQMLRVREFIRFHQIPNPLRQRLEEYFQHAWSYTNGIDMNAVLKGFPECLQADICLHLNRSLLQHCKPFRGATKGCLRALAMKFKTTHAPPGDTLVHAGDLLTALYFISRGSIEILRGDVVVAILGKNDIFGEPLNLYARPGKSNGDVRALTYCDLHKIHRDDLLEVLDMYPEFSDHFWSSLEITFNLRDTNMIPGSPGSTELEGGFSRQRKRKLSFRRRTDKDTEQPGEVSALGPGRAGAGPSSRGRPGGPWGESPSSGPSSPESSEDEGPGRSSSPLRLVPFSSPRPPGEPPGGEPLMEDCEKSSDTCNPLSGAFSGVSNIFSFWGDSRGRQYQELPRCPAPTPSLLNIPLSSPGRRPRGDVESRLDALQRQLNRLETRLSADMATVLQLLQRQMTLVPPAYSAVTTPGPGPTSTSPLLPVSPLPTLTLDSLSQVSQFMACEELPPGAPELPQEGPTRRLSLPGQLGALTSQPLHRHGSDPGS

SMILES | hERG current change (%, negative = inhibition) at 10uM [%]
O=C(CSc1nc2ccccc2c(=O)n1CCC(=O)N1CCN(c2ccccc2)CC1)NCC1CCCO1 (centres unmarked) | -45.6
Cc1nnsc1NC(=O)OCc1ccccc1Cl | 2.2
COC(=O)c1ccc(CSc2nnc3nc(C)cc(C)n23)cc1 | 1.98
COc1ccccc1-c1nc(C#N)c(N2CCc3ccccc3C2)o1 | 2.57
COc1ccc(OC)c(C(=O)NC(CC(N)=O)c2ccc(N3CCC(N4CCCC4)CC3)c([N+](=O)[O-])c2)c1 (centres unmarked) | 5.1
CCOCCn1c(CN2CCN(C)CC2)nc2c1c(=O)n(C)c(=O)n2C | 3.97
CCN(CC)CCN(C(=O)c1c(F)cccc1F)c1nc2cc(C)cc(C)c2s1.Cl | -11.1
N#Cc1c(-c2ccccc2)cc(-c2ccccc2)[nH]c1=O | 22.2
c1ccc(CC(Nc2ccccn2)c2ccccc2)cc1 (centres unmarked) | -52.8
O=C(CCn1nnnc1CN1CCOCC1)N1CCC(c2ccccc2Cl)C1 (centres unmarked) | 0.252
Cc1cc(C)nc(N2C(=O)CC(C(C)c3ccccc3)C2=O)n1 (centres unmarked) | 18.2
Cc1nn(-c2ccccc2)c(C)c1C(=O)OCC(=O)NC(=O)NC1CCCCC1 | 0.462
CCC1(c2ccccc2)NC(=O)N(CC(=O)Nc2cccc(C#N)c2)C1=O (centres unmarked) | 1.28
O=CN1CCN(C(=O)C(=O)c2cn(CC(=O)N3CCCCC3)c3ccccc23)CC1 | 12
CCOc1ccccc1CN1CCNC(=O)C1CC(=O)N(C)CCc1ccccn1 (centres unmarked) | 14
CC(C)C(=O)NC(=S)Nc1nnn(C)n1 | 11.3
Cc1noc(C)c1C(c1ccccc1)c1ccccc1 | -16.9
O=[N+]([O-])c1ccccc1S(=O)(=O)N1CCN(c2ccccc2)CC1 | -20.1
COc1ccccc1N1CCN(S(=O)(=O)CCNC(=O)CC2CCCCC2)CC1 | -0.45

SMILES | hERG current change (%, negative = inhibition) at 10uM [%]
Cc1ccc(NC(=O)C(c2ccc(Cl)cc2Cl)N2CCCC2)cc1 (centres unmarked) | -2.49
COc1ccc2nc(C)cc(SCC(=O)N3CCCCC3)c2c1 | -19.4
CC(C)C(OC(=O)c1nsc(Cl)c1Cl)C(=O)NCC1CCCO1 (centres unmarked) | 2.88
COc1ccc(NC(=O)Nc2ccccc2F)c([N+](=O)[O-])c1 | 9.62
COc1ccc(NC(=O)CSc2nc(C)cs2)c(OC)c1 | 7.31
O=c1cc(-c2c(F)c(F)c(F)c(F)c2F)oc2c(F)c(F)c(F)c(F)c12 | 1.28
CCc1ccc(N(CC(=O)NCc2cccnc2)S(=O)(=O)c2ccccc2)cc1 | -27
CN(c1ccccc1)S(=O)(=O)c1ccccc1Br | 3.35
CCN(C(C)=O)c1ccc(Oc2nc(OC)cc(OC)n2)cc1 | -13.3
Cc1cccc(N2C(=O)/C(=C\c3ccc(C(=O)O)cc3)c3ccccc3C2=O)c1 | 8.38
CC(=O)N1CCCc2cc(S(=O)(=O)N(C)CCC#N)ccc21 | -0.0813
C=CCn1c(-c2ccccc2)cc(SC)c(C#N)c1=O | 18.1
CC(OC(=O)c1ccc2ncsc2c1)C(=O)Nc1ncc(Cl)cc1Cl (centres unmarked) | 4.5
C/C(=N\Nc1cc(N2CCCCC2)nc(C)n1)c1ccc(Br)cc1 | -1.08
CCC(C)(C)NC(=O)C(c1ccc(OC)cc1)N(C(=O)CCC(=O)Nc1cc(C)on1)c1ccccc1OC (centres unmarked) | -10
CCCn1nc(NC(=O)c2cccs2)c2cc3cc(C)ccc3nc21 | 13.1
CCCOC(=O)c1ccc(NC(=O)CSC2=Nc3ccccc3C3CC=NN23)cc1 (centres unmarked) | 13.8
COc1cc2ccccc2cc1C(=O)N(CCN(C)C)c1nc2ccc(C)cc2s1.Cl | -11.2
CC(=O)Nc1ccc(NC(=O)COC(=O)c2ccccn2)cc1 | 31.5

SMILES | hERG current change (%, negative = inhibition) at 10uM [%]
COc1ccc(S(=O)(=O)N2CCC(C(=O)N3CCCC3)CC2)cc1C | 13.8
COc1ccc(-c2coc3cc(O)c(OC)cc3c2=O)cc1 | 11.7
Cn1c(SC2CCCCC2=O)nnc1-c1ccncc1 (centres unmarked) | -13.2
CC(=O)Nc1ccc(CN2CCC(Oc3ccc(C(=O)N4CCCC4)cc3)CC2)cc1 | -21.3
O=C(NC1CCN(C(=O)c2cccc([N+](=O)[O-])c2)CC1)c1ccccc1 | -32.8
c1ccc(Cn2c(-c3ccco3)nc3nc4ccccc4nc32)cc1 | 6.13
O=c1[nH]c(CSc2ncnc3sccc23)nc2cc(C(F)(F)F)ccc12 | 7.04
CCC(=O)c1c(CC)c2n3c1CC[C@H]3CCC2 | 1.28
Cc1[nH]c2ccccc2c1C(=O)COC(=O)C(C)C | -6.03
COCCCNC(=O)[C@H](CSCc1ccccc1)N1Cc2ccccc2C1=O | -14.5
CCN1CCCC1CN(Cc1cc2ccc(C)cc2[nH]c1=O)C(=S)Nc1ccc(F)cc1 (centres unmarked) | -78.5
CCSc1nnc(-c2cc3c(s2)-c2ccccc2CC3)o1 | 9.83
COc1ccc(CC2(CO)CCN(S(=O)(=O)c3cccc4cccnc34)CC2)cc1 | -5.13
CSC1=NSC2=NC(=O)/C(=C/c3coc4ccccc4c3=O)C(=N)N12 | 15.6
O=C(Nc1nc(-c2ccccc2)cs1)c1cccc([N+](=O)[O-])c1 | 1.13
CC(O)(C#CCN1CCCCCC1)c1ccccc1 (centres unmarked) | 13.7
CC(C)(C)c1nnc(NS(=O)(=O)c2ccc([N+](=O)[O-])cc2)s1 | 28.3
O=C(C1=NN[C@@H]2C(=O)N(c3cccc(F)c3)C(=O)[C@H]12)c1ccc2ccccc2n1 | 5.23
